Sequences with one replicate were seen in a single cluster, so their values are uncertain.
Test system: ATP
Assay: switch fluorescence ratio, 500 uM ATP over buffer (Cy3 cluster intensity, sum of 5 cycles each) (fold (ratio)); higher = stronger signal-on switching upon ATP binding; sequences stand for … in TCGTCGGCAGCGTCAGATGTGTATAAGAGACAGTTTTTTTTTTTTTTTTTTTTTTTTT…TC
Settings: aptamer strand: ATP DNA aptamer (quencher-CACCTGGGGGAGTATTGCGGAGGAAGG + anchor), 100 nM annealed; ATP concentration: 500 uM; one replicate
Method in brief: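 The fluorescence ratio divides summed target-cycle Cy3 intensity by summed buffer-cycle Cy3 intensity for each cluster and is averaged per switch-domain sequence. Cy3-labelled switching-strand clusters on a modified Illumina MiSeq flow-cell were annealed to 100 nM quencher-labelled ATP aptamer, then imaged in selection buffer and again after 15 min with 500 uM ATP at 22 °C. Five such cycles were run, with NaOH stripping and re-annealing between them, and clusters outside 100-1000 RFU were excluded.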
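Also: ATP exposure 15 min at 22 °C before imaging.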

CCCAGCAGAA showed a switch fluorescence ratio of 2.33.

GGCAACGCTC showed a switch fluorescence ratio of 1.05.

With TGATGCGGGG the switch fluorescence ratio was 1.

For ACGCGATCGA, the switch fluorescence ratio was 1.04.

CGCTGACTAT gave a switch fluorescence ratio of 1.08.

With TAAGGTCGG the switch fluorescence ratio was 0.918.

For CGCCGTGGCA, the switch fluorescence ratio was 1.03.

CAAATCTTCG gave a switch fluorescence ratio of 1.36.

Sequence CCAGCGGGGT has a switch fluorescence ratio of 1.09.

With CCGATCACCA the switch fluorescence ratio was 1.12.

With GACTCAGATC the switch fluorescence ratio was 1.07.

Sequence ACAGCTGTAT has a switch fluorescence ratio of 1.04.

GACTGCGCCA showed a switch fluorescence ratio of 1.87.

With GTCTAAGCTC the switch fluorescence ratio was 0.999.

CTGTCGGCGT gave a switch fluorescence ratio of 0.963.

TGGGGTATCG gave a switch fluorescence ratio of 0.974.

CGTCCGGGCT showed a switch fluorescence ratio of 1.03.

In the case of AGCTTTCCTT, the switch fluorescence ratio is reported as 1.1.

TCCCGTCATT was tested, and the switch fluorescence ratio was 1.06.

CTTCTCTCCT was tested, and the switch fluorescence ratio was 1.13.

AAGCAAATTT gave a switch fluorescence ratio of 1.07.

Sequence TGAGGTTTA has a switch fluorescence ratio of 0.948.

In the case of GTCAATGCAG, the switch fluorescence ratio is reported as 0.953.

TGGTATCTT gave a switch fluorescence ratio of 0.998.

In the case of AAAGAATCGG, the switch fluorescence ratio is reported as 0.963.

GTGTGGGGTT gave a switch fluorescence ratio of 1.

For TTAATATATG, the switch fluorescence ratio was 1.02.

In the case of ATGTAACGGT, the switch fluorescence ratio is reported as 1.01.

For GCCACGGCCG, the switch fluorescence ratio was 1.02.

With ACTATATTAT the switch fluorescence ratio was 1.04.

In the case of AGCTATGGGG, the switch fluorescence ratio is reported as 0.979.

GGGTCAGCGA showed a switch fluorescence ratio of 1.04.

With GACTATCGCC the switch fluorescence ratio was 1.17.

With TTTTGGAGG the switch fluorescence ratio was 0.919.

In the case of TCTGGAAAGT, the switch fluorescence ratio is reported as 0.983.

GGAGATGTAC gave a switch fluorescence ratio of 1.25.

In the case of TCCTGGTCTA, the switch fluorescence ratio is reported as 1.03.

In the case of CAGATTGAGC, the switch fluorescence ratio is reported as 0.987.

With CAGTGGCCCT the switch fluorescence ratio was 1.

For ACATAATATA, the switch fluorescence ratio was 1.03.

For TGGACAGAAC, the switch fluorescence ratio was 1.1.

Work on ACGCTTGCAC yielded a switch fluorescence ratio of 1.27.

CCAAACATAG was tested, and the switch fluorescence ratio was 1.08.

With CAACAAGTTC the switch fluorescence ratio was 0.984.

GATGTTGGTG was tested, and the switch fluorescence ratio was 1.04.

ACTCGAGC showed a switch fluorescence ratio of 1.04.

AAGTTCTTTG gave a switch fluorescence ratio of 0.982.

With GTCCGTACGG the switch fluorescence ratio was 1.04.

For GACATTTTAC, the switch fluorescence ratio was 1.1.

For CGAGATTGGA, the switch fluorescence ratio was 1.04.

In the case of ACATAATCGC, the switch fluorescence ratio is reported as 1.02.

Sequence TCTCTGTAGA has a switch fluorescence ratio of 1.01.

TACGGGTACA gave a switch fluorescence ratio of 1.16.

With TTAGGAAATC the switch fluorescence ratio was 0.986.

CGGTGTGTCG was tested, and the switch fluorescence ratio was 0.943.

ACCAGTTCTC gave a switch fluorescence ratio of 0.994.

In the case of TGATTAAGTT, the switch fluorescence ratio is reported as 0.966.

AAGGCCCCAT showed a switch fluorescence ratio of 1.02.

Work on GATTGGCCCT yielded a switch fluorescence ratio of 1.05.

Sequence TGTTTAGGCC has a switch fluorescence ratio of 0.991.

TCTCTCACCT gave a switch fluorescence ratio of 1.1.

With ACTTCTGTCA the switch fluorescence ratio was 1.03.

CCGATGTACG was tested, and the switch fluorescence ratio was 1.18.

With TAAACGGCAC the switch fluorescence ratio was 1.96.

GGTTGGGCGC was tested, and the switch fluorescence ratio was 1.01.

For GTTGGTTAGT, the switch fluorescence ratio was 0.999.

CATGAAAAGC was tested, and the switch fluorescence ratio was 1.1.

CTCCAACTAA showed a switch fluorescence ratio of 1.16.

Work on AATTGCCACA yielded a switch fluorescence ratio of 1.03.

CTATTTAGTT gave a switch fluorescence ratio of 1.01.

GACCCCCGAT gave a switch fluorescence ratio of 1.28.

In the case of CTCTACGTTC, the switch fluorescence ratio is reported as 1.13.

In the case of CATGGGCTTT, the switch fluorescence ratio is reported as 0.999.

In the case of CGGGGAAG, the switch fluorescence ratio is reported as 0.987.

TGTATGACT gave a switch fluorescence ratio of 1.

CGTGTGAGCG gave a switch fluorescence ratio of 1.02.

For TAGATTTAC, the switch fluorescence ratio was 0.98.

Work on TTAACAGCAT yielded a switch fluorescence ratio of 1.03.

GACCTTCCTC was tested, and the switch fluorescence ratio was 2.4.

With CCTGAAGGCT the switch fluorescence ratio was 1.03.

ATAGTTTTGT was tested, and the switch fluorescence ratio was 1.04.

With TATTTGCTAT the switch fluorescence ratio was 1.02.

Work on GCCAGGGAGT yielded a switch fluorescence ratio of 1.02.

Work on TCGTTCGCTT yielded a switch fluorescence ratio of 1.79.

Work on AAGGTAAACC yielded a switch fluorescence ratio of 1.

With AGAAGGTCTG the switch fluorescence ratio was 0.992.

For GAACGCTCGA, the switch fluorescence ratio was 1.13.

For TGAGAGGGGA, the switch fluorescence ratio was 0.965.

GGGTAAAAGA showed a switch fluorescence ratio of 1.05.

AGACTATGAC showed a switch fluorescence ratio of 1.01.

CCATTACTAC showed a switch fluorescence ratio of 1.14.

Sequence TGCTTTCTGA has a switch fluorescence ratio of 1.03.

With GGTCTATCTG the switch fluorescence ratio was 0.953.

Work on CAGAGCATTG yielded a switch fluorescence ratio of 1.15.

In the case of ACAGTGTGTA, the switch fluorescence ratio is reported as 1.01.

Sequence GAGCTTAGTT has a switch fluorescence ratio of 1.02.

In the case of AGTTCGGGCT, the switch fluorescence ratio is reported as 0.978.

In the case of CACATCTTGG, the switch fluorescence ratio is reported as 0.996.

Work on CGATTTGCGG yielded a switch fluorescence ratio of 0.998.

TTTCAGATAC showed a switch fluorescence ratio of 1.13.

Sequence GTTAGTGTAC has a switch fluorescence ratio of 1.16.

TGTGGTCACA was tested, and the switch fluorescence ratio was 0.975.

With ATGTGCGGGA the switch fluorescence ratio was 1.03.

Work on GAATGAGAGT yielded a switch fluorescence ratio of 1.01.

Sequence GATTCCAGCC has a switch fluorescence ratio of 1.06.

In the case of AGGCTGCTTC, the switch fluorescence ratio is reported as 1.04.

Work on TTTTCCGGAT yielded a switch fluorescence ratio of 1.39.

In the case of AGAGCACTG, the switch fluorescence ratio is reported as 1.13.

Sequence GCGTCGGAGC has a switch fluorescence ratio of 1.01.

For TGAACTTCTG, the switch fluorescence ratio was 1.01.

TACTTTTGCC gave a switch fluorescence ratio of 1.1.

Sequence CATCGTAT has a switch fluorescence ratio of 1.03.

GCCTGGCAAC was tested, and the switch fluorescence ratio was 0.969.

For TAAATTATAG, the switch fluorescence ratio was 0.958.

With CTACGGGACT the switch fluorescence ratio was 1.32.

For GACATATTTC, the switch fluorescence ratio was 1.04.

CGGTACAACC gave a switch fluorescence ratio of 0.949.

In the case of CCATTTGTTC, the switch fluorescence ratio is reported as 0.98.

With CGGTCGAAAC the switch fluorescence ratio was 1.01.

TCCTACCACT showed a switch fluorescence ratio of 1.26.

TGGCCTCCAT was tested, and the switch fluorescence ratio was 0.985.

AAGGATAAAA showed a switch fluorescence ratio of 0.973.

TACTCGTTTT showed a switch fluorescence ratio of 1.04.

CAAAGATCGG was tested, and the switch fluorescence ratio was 0.957.

TGAGGACACG showed a switch fluorescence ratio of 1.06.

Sequence CCTAAAGCGG has a switch fluorescence ratio of 1.33.

With AACCGTGAAG the switch fluorescence ratio was 1.03.

With CAGTGTAAGT the switch fluorescence ratio was 0.988.

With TGCTGGGAG the switch fluorescence ratio was 1.1.

Sequence CTGAGTAGCT has a switch fluorescence ratio of 0.977.

With CCTTTGCCAC the switch fluorescence ratio was 3.98.

With TCCTAGGTTA the switch fluorescence ratio was 1.01.

CTACGCGGAG gave a switch fluorescence ratio of 1.24.

AAGCGCAGTT gave a switch fluorescence ratio of 1.01.

In the case of ACTATTGG, the switch fluorescence ratio is reported as 0.983.

In the case of TTCCACAGCC, the switch fluorescence ratio is reported as 1.55.

TTCTAGTGTT gave a switch fluorescence ratio of 0.986.

Sequence ATAAAGCGAC has a switch fluorescence ratio of 1.07.

Work on TCGGGTCTAA yielded a switch fluorescence ratio of 0.99.

AAGCCTATCT showed a switch fluorescence ratio of 1.

In the case of TTTCCTCGCG, the switch fluorescence ratio is reported as 2.48.

With GAGTAGGTAG the switch fluorescence ratio was 1.

For GAAGTAGGGT, the switch fluorescence ratio was 0.971.

In the case of CGTGTCTC, the switch fluorescence ratio is reported as 1.01.

In the case of CACCCTAAAG, the switch fluorescence ratio is reported as 1.06.

With TTAACTACGC the switch fluorescence ratio was 1.88.

CGAAGTTCC gave a switch fluorescence ratio of 1.05.

For GGTAGTGAGA, the switch fluorescence ratio was 0.972.

AGCCTCTTTA was tested, and the switch fluorescence ratio was 0.977.

TTAGGGGTG was tested, and the switch fluorescence ratio was 1.01.

CGAGTTCTCG was tested, and the switch fluorescence ratio was 0.982.

In the case of TGCGTTGGTC, the switch fluorescence ratio is reported as 1.08.

Work on AAGAGGACTA yielded a switch fluorescence ratio of 0.986.

Work on CGCTGGGGCC yielded a switch fluorescence ratio of 1.01.

Sequence TTGGCGCTAC has a switch fluorescence ratio of 2.61.

Work on TGGGACAGAG yielded a switch fluorescence ratio of 1.03.

For GTCGCTTTCC, the switch fluorescence ratio was 1.24.

— the supplement of paper PMC10126150
